Test results: paper PMC7819943, “Rice protein-binding microarrays: a tool to detect cis-acting elements near promoter regions in rice”
Some of the results follow.

biological target: T1, OsWOX13 (Oryza sativa, UniProt Q5QMM3 1-267); test: protein-binding microarray (RPBM); PBS, 2% BSA, 51.3 ng/ul salmon testes DNA, 50 uM zinc acetate, 200 nM TF, 25 C, 1 h; high values mean tight binding; details: protein: recombinant; tags: N-terminal polyhistidine and DsRed monomer fusion (pET32a); label: CyDye5-dUTP incorporated in the synthesized complementary strand; 3' TTTTT single-stranded linker to array surface; dsDNA, one strand shown
T1 sequence: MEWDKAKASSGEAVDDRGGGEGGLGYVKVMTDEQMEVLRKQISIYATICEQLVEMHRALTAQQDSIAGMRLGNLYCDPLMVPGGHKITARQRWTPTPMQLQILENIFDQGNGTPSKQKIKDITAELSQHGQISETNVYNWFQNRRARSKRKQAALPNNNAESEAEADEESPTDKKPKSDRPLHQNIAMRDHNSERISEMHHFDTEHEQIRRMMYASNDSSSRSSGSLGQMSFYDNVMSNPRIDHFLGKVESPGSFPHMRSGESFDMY
In short: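 Transcription factors, each fused N-terminally to a polyhistidine tag and DsRed, were expressed in E. coli BL21-CodonPlus and purified on Ni–NTA. A custom Agilent array was made double-stranded by primer extension with Cy5-dUTP and blocked with 2% BSA. It was incubated with 200 nM protein in PBS, 2% BSA, salmon testes DNA and 50 µM zinc acetate at 25 °C for 1 h, then washed. The binding signal is per-feature fluorescence intensity (arbitrary units) read on an Axon 4000B scanner.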

Point of comparison: “TAATTGATTGTAGCTCGTTGAATTCCGGTTATTCCATTACCGGAGTCACCTAGTGCAG”, binding signal 34700 fluorescence intensity (a.u.). Against it:
- TTACCTTTCAGTCAACCGACGAGATTGGGCGGTGGCGGCACGGAGTCACCTAGTGCAG — lower, 3410 fluorescence intensity (a.u.)
- GAGATTCAATCACCACCTTAATGTTTCACAGCTACTCCCTCGGAGTCACCTAGTGCAG — lower, 18400 fluorescence intensity (a.u.)
- CTGCTTTTCATAGATTGAATGTTGCATACTGTATATGGGGCGGAGTCACCTAGTGCAG — lower, 8660 fluorescence intensity (a.u.)
- GTAATTAACTAATTTATTACAAATTGAAGAAATAATTGTACGGAGTCACCTAGTGCAG — lower, 23800 fluorescence intensity (a.u.)
- TTTAATTACTAATCAATTTCATACATTCATATAGTTTATTCGGAGTCACCTAGTGCAG — higher, 55600 fluorescence intensity (a.u.)
- AGCATCATCTAAATTGCATTTTGTATTCTTCCAAGTTACTCGGAGTCACCTAGTGCAG — lower, 3530 fluorescence intensity (a.u.)
- TCCAAATCATCCATAGTTAATTTAATAGGCAATTCATACACGGAGTCACCTAGTGCAG — lower, 8250 fluorescence intensity (a.u.)
- CTAAACTAATCAGGCGCCACGTCGGATGTGCTTACCACGTCGGAGTCACCTAGTGCAG — lower, 7520 fluorescence intensity (a.u.)
- GCAATTATTGGCCATTACTAGTTATGCAAGGTAGAAGTGTCGGAGTCACCTAGTGCAG — lower, 5660 fluorescence intensity (a.u.)
- TTATCAAATCAATAATTAAATATATTTTCATAATAAATTTCGGAGTCACCTAGTGCAG — lower, 4020 fluorescence intensity (a.u.)
- CGCTCGATTAGTGATTACCCGCTCAAACTCCCGCAACGTTCGGAGTCACCTAGTGCAG — lower, 15100 fluorescence intensity (a.u.)
- ATATATTCAACACGTACGTTAATTTACGGTCAAACTTTGCCGGAGTCACCTAGTGCAG — lower, 3530 fluorescence intensity (a.u.)
- GTTAGAGATAATTGCAATTGTTATCACATGCCTTTCTAATCGGAGTCACCTAGTGCAG — lower, 13800 fluorescence intensity (a.u.)
- CTCTTAATAATTAGGGACCAGTCCGCCGTATCGGCGTTTACGGAGTCACCTAGTGCAG — lower, 4030 fluorescence intensity (a.u.)
- TGTCTGCTACTGCTTTGATTGATAGTGGCAGCACCTCAACCGGAGTCACCTAGTGCAG — lower, 15300 fluorescence intensity (a.u.)
- GATATGAGTGACTAATTGACTTTGTGTTGATTTCGAGCAGCGGAGTCACCTAGTGCAG — lower, 34600 fluorescence intensity (a.u.)
- CGGAATATAATCTATCATTAGCTCTGCCATCCAATAATCCCGGAGTCACCTAGTGCAG — lower, 3910 fluorescence intensity (a.u.)
- GTTAATTGATTAGCAAAAGGTACTATACATATATTCTTTTCGGAGTCACCTAGTGCAG — lower, 33800 fluorescence intensity (a.u.)
- ATAGATTGAGTTGAGCCTGATCCCGTCTCTACTTTCTCCTCGGAGTCACCTAGTGCAG — lower, 34000 fluorescence intensity (a.u.)
- AATGTGATGACTGGACTGCCATGTCAGCCAATATCACCTTCGGAGTCACCTAGTGCAG — lower, 9860 fluorescence intensity (a.u.)
- CAGATAGATGGATAGTACTACTACTAGTAGTAATACAAACCGGAGTCACCTAGTGCAG — lower, 5100 fluorescence intensity (a.u.)
- TTACAAAACTAATTACATAAATGAAAGCTAATTCGGGAGGCGGAGTCACCTAGTGCAG — lower, 8650 fluorescence intensity (a.u.)
- AGGTTGCAATCATTGGCCAGACGTTGCATGTCGTTGTTGACGGAGTCACCTAGTGCAG — lower, 13700 fluorescence intensity (a.u.)
- TCAGAATTGGAGAGAAATTAAACTGAGTTTTGGTGTTCCACGGAGTCACCTAGTGCAG — lower, 5000 fluorescence intensity (a.u.)
- ATCGTTGATTACCTACCAATTGATTATGGAAATAAATTAACGGAGTCACCTAGTGCAG — lower, 22900 fluorescence intensity (a.u.)
- AACCAATCAAACCCATCCACTTAGATCCAGAAAGTCAAATCGGAGTCACCTAGTGCAG — lower, 7920 fluorescence intensity (a.u.)
- TTATGACTATTTAAATTTAAATCATATCAACTTATATAAACGGAGTCACCTAGTGCAG — lower, 10700 fluorescence intensity (a.u.)
- CTCACCTACCGCATCTGTGTTCCTTTTGCTTTCTTTCTTTCGGAGTCACCTAGTGCAG — lower, 3220 fluorescence intensity (a.u.)
- TATTTAATACTTCTAATTAGTATCAAACATCCGATATGACCGGAGTCACCTAGTGCAG — lower, 8000 fluorescence intensity (a.u.)
- ACTGATGAATGAAGCATGCGAGCAGCTGATCCGCCATTGCCGGAGTCACCTAGTGCAG — lower, 5330 fluorescence intensity (a.u.)
- AATGATTTTATGTATATATGATTAAAGAAATGAGAAACATCGGAGTCACCTAGTGCAG — lower, 4960 fluorescence intensity (a.u.)
- CATAAATTACATAGGCTCGTGGCAGTCTGCTGATCGATCGCGGAGTCACCTAGTGCAG — lower, 18300 fluorescence intensity (a.u.)
- AATTTAGGGGATTGAATGTCCTGTTTCAAAGTTCAGGGTGCGGAGTCACCTAGTGCAG — lower, 4080 fluorescence intensity (a.u.)
- TATAGATAATTTGGAGTTAGTAGTTATGGTTGGCTATACTCGGAGTCACCTAGTGCAG — lower, 13400 fluorescence intensity (a.u.)
- TATAATTATATTGGATATGCATGCATGCATTCATCTGACCCGGAGTCACCTAGTGCAG — lower, 30100 fluorescence intensity (a.u.)
- ACATAATTAATATCTGGTCTCACCTCTCATACACACATGTCGGAGTCACCTAGTGCAG — lower, 23900 fluorescence intensity (a.u.)
- ATTTTAATTAGTTCAATACCGCGCCTTAATTGCCCTTCCACGGAGTCACCTAGTGCAG — lower, 33200 fluorescence intensity (a.u.)
- TGCAGAACAGATTGAAGTTGAGTGGAACAGTAGTCAAGTACGGAGTCACCTAGTGCAG — lower, 8480 fluorescence intensity (a.u.)
- ATAACAATTGATAAATTCACCAGTATATTATAGAAAGTGACGGAGTCACCTAGTGCAG — lower, 12200 fluorescence intensity (a.u.)
- AGCCACTGGAATTTTAGATTGGAAAAGAACACCGGTCCATCGGAGTCACCTAGTGCAG — lower, 4620 fluorescence intensity (a.u.)
- TATTTGTAATTTCAGTTGATATGACATATAAGTCCACTGTCGGAGTCACCTAGTGCAG — lower, 8290 fluorescence intensity (a.u.)
